{"source": "PubChem BioAssay AID1460", "about": "(National Center for Advancing Translational Sciences (NCATS), 2008)", "note": "Several values for one entry are separate records, joined by “and”; a condition that tells them apart may be missing. Identical values can stand only once. Among all 270,000 compounds or so, about 5,800 (2.1%) were called active. The shares of active, inactive and inconclusive entries below differ from those in the screen. The call rests on the fitted dose curve; in most records, active means well fitted inhibition curve with a large enough effect; inconclusive means small, poorly fitted or top-dose-only effect; inactive means flat fitted curve, though single readings scatter. Potencies of inconclusive entries are doubtful fits and often do not repeat. Some compounds were tested as several samples or in several runs, with calls that do not always agree. Potency means the concentration at half of the fitted maximal effect; tags describe the fitted curve by direction and shape."}
{"molecular_target": "Microtubule-associated protein tau (Homo sapiens) (UniProt P10636)", "sequence (P10636 whole entry, looked up, the tested form may be a part)": "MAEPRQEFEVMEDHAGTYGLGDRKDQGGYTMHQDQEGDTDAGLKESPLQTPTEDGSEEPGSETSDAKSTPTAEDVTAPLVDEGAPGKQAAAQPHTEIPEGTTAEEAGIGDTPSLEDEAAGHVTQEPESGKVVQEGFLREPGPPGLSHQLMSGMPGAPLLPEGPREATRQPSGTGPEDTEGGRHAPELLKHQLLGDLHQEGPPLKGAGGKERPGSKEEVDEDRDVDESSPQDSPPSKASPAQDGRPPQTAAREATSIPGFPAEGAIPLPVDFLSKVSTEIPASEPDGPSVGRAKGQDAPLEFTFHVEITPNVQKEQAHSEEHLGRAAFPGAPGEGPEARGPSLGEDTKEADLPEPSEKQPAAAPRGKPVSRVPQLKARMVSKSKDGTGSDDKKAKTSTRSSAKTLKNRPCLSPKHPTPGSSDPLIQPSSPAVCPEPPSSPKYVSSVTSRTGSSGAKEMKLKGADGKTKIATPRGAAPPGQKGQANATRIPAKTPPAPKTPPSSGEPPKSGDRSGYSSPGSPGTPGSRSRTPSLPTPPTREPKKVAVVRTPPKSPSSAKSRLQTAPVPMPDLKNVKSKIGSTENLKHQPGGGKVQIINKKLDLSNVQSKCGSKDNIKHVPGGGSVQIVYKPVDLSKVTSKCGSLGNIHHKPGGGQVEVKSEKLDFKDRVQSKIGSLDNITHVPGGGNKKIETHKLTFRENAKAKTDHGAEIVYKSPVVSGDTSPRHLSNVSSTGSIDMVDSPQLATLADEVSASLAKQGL", "test": "qHTS for Inhibitors of Tau Fibril Formation, Thioflavin T Binding; further: nearly all actives have a fitted effect of over 55% in size", "settings": "recombinant tau K18 P301L (four-repeat tau fragment), heparin-induced fibrillization, ThT fluorescence; series mostly up to 57.4 µM", "in_short": "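Heparin-induced (20 uM) aggregation of recombinant human K18 P301L tau, 15 uM unlabeled with 0.24 uM labeled, pH 7 acetate buffer, 6 hr at 37 C with compound. Fibrils quantified by 30 uM ThT fluorescence after 1 hr ambient incubation.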"}
{"smiles": "CC(=O)NC(Cc1c[nH]c2ccccc12)C(=O)Nc1ccc2c(c1)OCO2", "note": "(stereo not given)", "Potency": "inactive"}
{"smiles": "NC(=O)CC(NC(=O)Cc1cccc2ccccc12)c1ccc(N2CCN(c3ccc(F)cc3)CC2)c([N+](=O)[O-])c1", "note": "(stereo not given)", "Potency": "inconclusive: 11.2 µM [inhibitor, partial curve]"}
{"smiles": "O=C(CN1CCSc2ccccc21)N1CCN(c2ccccc2)CC1", "Potency": "inconclusive: 31.6 µM [inhibitor, single point]"}
{"smiles": "CCc1ccc(NC(=O)c2cc(-c3cccs3)on2)cc1", "Potency": "inconclusive: 0.224 µM [inhibitor, partial curve]"}
{"smiles": "CC1=CC(C)(C)N(C(=O)Nc2ccccc2)c2ccccc21", "Potency": "inconclusive: 25.1 µM [inhibitor, partial curve, poor fit]"}
{"smiles": "COc1ccc(C2=CC3=C(Br)C(=O)C(C)(O)C(=O)C3=CO2)cc1", "note": "(stereo not given)", "Potency": "inactive and active: 17.8 µM"}
{"smiles": "Cc1cccc(-n2c3c(cc(-c4nc(-c5ccc(Cl)cc5)cs4)c2=O)C(=O)CC(C)(C)C3)c1", "Potency": "inactive"}
{"smiles": "Cc1cccc(CNc2nc(-c3cccc(NS(C)(=O)=O)c3)nc3ccccc23)c1", "Potency": "inconclusive: 28.2 µM [activator, single point]"}
{"smiles": "O=C(/C=C/c1ccc(Cl)cc1)N1CCN(c2ccc([N+](=O)[O-])c(N3CCOCC3)c2)CC1", "Potency": "inconclusive: 5.62 µM [inhibitor, partial curve]"}
{"smiles": "CSc1ccc(CCNC(=O)CCc2c(C)nc3c(-c4ccccc4)c(C)nn3c2C)cc1", "Potency": "inactive"}
{"smiles": "NC(=O)C1(N2CCCCC2)CCN(C(=S)NCCc2ccccc2)CC1", "Potency": "inactive"}
{"smiles": "COc1cccc(/C=C/c2nc(C#N)c(N3CCCCC3)o2)c1", "Potency": "inconclusive: 28.2 µM [inhibitor, single point]"}
{"smiles": "O=C(c1cnc2cc(-c3ccccc3)nn2c1)c1cc([N+](=O)[O-])ccc1O", "Potency": "inconclusive: 14.1 µM [inhibitor, partial curve]"}
{"smiles": "O=C(COC(=O)c1cc(-c2cccnc2)nc2ccccc12)Nc1ccc(F)cc1F", "Potency": "inconclusive: 22.4 µM [inhibitor, single point]"}
{"smiles": "CCOC(=O)C1=C(C)N(c2ccc(C)cc2)C(=O)/C1=C\\c1cccs1", "Potency": "active: 15.8 µM"}
{"smiles": "CN1CCN(CCc2cn3ncc(C#N)c3nc2-c2ccc(F)cc2)CC1", "Potency": "inactive"}
{"smiles": "COc1cc(/C=N/Nc2nc3c(c(=O)n(C)c(=O)n3C)n2Cc2ccccc2)ccc1OC(=O)c1ccco1", "Potency": "inconclusive: 3.55 µM [inhibitor, full curve]"}
{"smiles": "COc1cc2c(cc1OC)C(COc1ccccc1OC)N(C(=O)c1ccco1)CC2", "note": "(stereo not given)", "Potency": "inconclusive: 11.2 µM [inhibitor, partial curve]"}
{"smiles": "Cc1ccc(C)c(N2CCN(C(=O)Cn3ncc4c(=O)oc5ccc(C)cc5c43)CC2)c1", "Potency": "inconclusive: 15.8 µM [inhibitor, partial curve, poor fit]"}
{"smiles": "COc1ccc2cc(C3(C)NC(=O)N(CC(=O)Nc4c(C)n(C)n(-c5ccccc5)c4=O)C3=O)ccc2c1", "note": "(stereo not given)", "Potency": "inactive"}
{"smiles": "Cc1ccc(CCNC(=O)c2cc(-c3ccncc3)nc3ccccc23)cc1", "Potency": "inconclusive: 44.7 µM [inhibitor, single point]"}
{"smiles": "COc1ccccc1CNC(=O)CCc1c(C)nc2cc(-c3ccccc3OC)nn2c1C", "Potency": "inconclusive: 39.8 µM [inhibitor, single point]"}
{"smiles": "C/C(Cn1nc([N+](=O)[O-])cc1C)=N\\NC(=O)COc1ccc(Cl)cc1Cl", "Potency": "inconclusive: 17.8 µM [inhibitor, partial curve]"}
{"smiles": "COc1ccc(CNC(=O)Cn2ccc3cc(S(=O)(=O)N4CCCCC4)ccc32)c(OC)c1", "Potency": "inactive"}
{"smiles": "COc1ccc(CNCCC(c2ccc(F)cc2)c2ccc(OC(C)C)cc2)cc1OC", "note": "(stereo not given)", "Potency": "inconclusive: 22.4 µM [inhibitor, single point]"}
{"smiles": "CS(=O)(=O)c1ccc2nc(NC(=O)Nc3cccc(Cl)c3)sc2c1", "Potency": "inconclusive: 11.2 µM [activator, partial curve]"}
{"smiles": "Cc1n[nH]c(C)c1Sc1ccccc1N=Cc1cc(Cl)cc([N+](=O)[O-])c1O", "Potency": "active: 10 µM"}
{"smiles": "CC(=O)c1ccc(NC(=O)c2ccc3c(c2)N(Cc2cccc(Cl)c2)C(=O)c2ccccc2S3(=O)=O)cc1", "Potency": "inactive"}
{"smiles": "O=C(c1ccc(Cl)c(Cl)c1)N1CCC(=O)N(C(COCc2ccccc2)Cc2ccccc2)CC1", "note": "(stereo not given)", "Potency": "inconclusive: 1.41 µM [inhibitor, partial curve, poor fit]"}
{"smiles": "Cc1ccc(Cn2ccn(CC(=O)Nc3ccccc3C(F)(F)F)c(=O)c2=O)cc1", "Potency": "inactive"}
{"smiles": "COC(=O)C(NC(C)=O)(Nc1cccc(C)n1)C(F)(F)F", "note": "(stereo not given)", "Potency": "inactive"}
{"smiles": "COc1ccccc1CNC(=O)C1CCCN(c2nn3cc(-c4ccc(F)cc4)nc3s2)C1", "note": "(stereo not given)", "Potency": "inconclusive: 3.16 µM [inhibitor, partial curve]"}
{"smiles": "CNC(=O)c1ccsc1NC(=O)c1coc2ccccc2c1=O", "Potency": "inconclusive: 10 µM [inhibitor, partial curve]"}
{"smiles": "CCOC(=O)c1cnc2cc(C(F)(F)F)ccc2c1N1CCN(c2ccc(F)cc2)CC1", "Potency": "inactive"}
{"smiles": "COc1ccc(-c2cc(=O)c3cc(OC)c(OC)cc3[nH]2)cc1", "Potency": "inconclusive: 17.8 µM [inhibitor, partial curve, poor fit]"}
{"smiles": "COc1ccc(-c2nc3sc(CCNC(=O)c4cccc(C(F)(F)F)c4)c(C)n3n2)cc1", "Potency": "inconclusive: 2.51 µM [inhibitor, partial curve]"}
{"smiles": "Cc1cc[n+](-c2[nH]c(=O)sc2/C=N/NC([S-])=Nc2ccccc2)cc1", "Potency": "inconclusive: 14.1 µM [inhibitor, partial curve]"}
{"smiles": "COc1ccc(CCNC(=O)/C(C#N)=C2\\N=C(NC(=O)c3ccco3)c3ccccc32)cc1", "Potency": "inconclusive: 22.4 µM [inhibitor, partial curve, poor fit]"}
{"smiles": "Cc1cc(Br)c2c(c1)=C(c1sc(N3CCCCCC3)nc1O)C(=O)N=2", "Potency": "inconclusive: 3.55 µM [inhibitor, partial curve]"}
{"smiles": "CC[C@H](C)/C=C(C)/C=C/C(=O)Cc1cc(O)c(C)c(O)c1C=O", "Potency": "inconclusive: 39.8 µM [inhibitor, single point]"}
